Measurements published in patent US8592383B2, “Cycloalkyl-fused tetrahydroquinolines as CRTH2 receptor modulators” (Merck Sharp & Dohme Corp., priority 2011, dated 2013).

molecular target: T1, hCRTH2 (Homo sapiens, UniProt Q9Y5Y4); assay: biochemical; conditions: Ki (nM), Table A; Radioligand Binding Assay A, [3H]PGD2, HEK-hCRTH2 membranes
T1 sequence (Q9Y5Y4 1-395): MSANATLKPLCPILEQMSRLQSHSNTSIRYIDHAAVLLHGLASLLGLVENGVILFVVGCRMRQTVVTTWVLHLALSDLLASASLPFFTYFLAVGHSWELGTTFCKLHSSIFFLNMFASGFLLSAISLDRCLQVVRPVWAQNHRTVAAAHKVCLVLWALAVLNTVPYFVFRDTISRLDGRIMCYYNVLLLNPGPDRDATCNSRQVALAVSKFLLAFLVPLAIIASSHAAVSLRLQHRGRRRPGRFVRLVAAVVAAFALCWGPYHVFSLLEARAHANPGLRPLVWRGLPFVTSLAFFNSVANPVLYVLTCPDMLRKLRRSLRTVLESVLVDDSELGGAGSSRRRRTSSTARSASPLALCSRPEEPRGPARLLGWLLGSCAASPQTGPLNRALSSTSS

Ki | Compound
1 to 5 nM | CCN(C(=O)CCC(=O)O)C1c2ccccc2N(C(=O)c2cccs2)C2CCC12 (single isomer, unassigned) [compound 81, 4-(ethyl(cis, cis-3-(thiophene-2-carbonyl)-1,2,2a,3,8,8a-hexahydrocyclobuta[b]quinolin-8-yl)amino)-4-oxobutanoic acid]
5.1 to 20 nM | CCN(C(=O)CCC(=O)O)C1c2ccccc2N(C(=O)c2ccc(F)cc2)C2CCC12 (single isomer, unassigned) [compound 82, 4-(ethyl(cis, cis-3-(4-fluorobenzoyl)-1,2,2a,3,8,8a-hexahydrocyclobuta[b]quinolin-8-yl)amino)-4-oxobutanoic acid]
1 to 5 nM | CCN(C(=O)CCC(=O)O)C1c2ccccc2N(C(=O)c2ccc(SC(F)(F)F)cc2)C2CCC12 (single isomer, unassigned) [compound 83, 4-(ethyl(cis, cis-3-(4-(trifluoromethylthio)benzoyl)-1,2,2a,3,8,8a-hexahydrocyclobuta[b]quinolin-8-yl)amino)-4-oxobutanoic acid]
5.1 to 20 nM | CCc1ccc(C(=O)N2c3ccccc3C(N(CC)C(=O)CCC(=O)O)C3CCC32)cc1 (single isomer, unassigned) [compound 84, 4-(ethyl(cis, cis-3-(4-ethylbenzoyl)-1,2,2a,3,8,8a-hexahydrocyclobuta[b]quinolin-8-yl)amino)-4-oxobutanoic acid]
20.1 to 200 nM | CCN(C(=O)CCC(=O)O)C1c2ccccc2N(C(=O)c2cc(F)cc(F)c2)C2CCC12 (single isomer, unassigned) [compound 85, 4-((cis, cis-3-(3,5-difluorobenzoyl)-1,2,2a,3,8,8a-hexahydrocyclobuta[b]quinolin-8-yl)(ethyl)amino)-4-oxobutanoic acid]
20.1 to 200 nM | CCN(C(=O)CCC(=O)O)C1c2ccccc2N(C(=O)c2cc(F)c(F)c(F)c2)C2CCC12 (single isomer, unassigned) [compound 86, 4-(ethyl(cis, cis-3-(3,4,5-trifluorobenzoyl)-1,2,2a,3,8,8a-hexahydrocyclobuta[b]quinolin-8-yl)amino)-4-oxobutanoic acid]
5.1 to 20 nM | CCN(C(=O)CCC(=O)O)C1c2ccccc2N(C(=O)c2ccc(F)c(C(F)(F)F)c2)C2CCC12 (single isomer, unassigned) [compound 87, 4-(ethyl(cis, cis-3-(4-fluoro-3-(trifluoromethyl)benzoyl)-1,2,2a,3,8,8a-hexahydrocyclobuta[b]quinolin-8-yl)amino)-4-oxobutanoic acid]
5.1 to 20 nM | CCN(C(=O)CCC(=O)O)C1c2ccccc2N(C(=O)c2ccc(C(F)(F)F)cc2)C2CCC12 (single isomer, unassigned) [compound 88, 4-(ethyl(cis, cis-3-(4-(trifluoromethyl)benzoyl)-1,2,2a,3,8,8a-hexahydrocyclobuta[b]quinolin-8-yl)amino)-4-oxobutanoic acid]
20.1 to 200 nM | CCN(C(=O)CCC(=O)O)C1c2ccccc2N(C(=O)OCc2ccc(F)cc2)C2CCC12 (single isomer, unassigned) [compound 89, 4-(ethyl(cis, cis-3-((4-fluorobenzyloxy)carbonyl)-1,2,2a,3,8,8a-hexahydrocyclobuta[b]quinolin-8-yl)amino)-4-oxobutanoic acid]
20.1 to 200 nM | CCN(C(=O)CCC(=O)O)C1c2ccccc2N(C(=O)OCc2ccc(F)c(F)c2)C2CCC12 (single isomer, unassigned) [compound 90, 4-((cis, cis-3-((3,4-difluorobenzyloxy)carbonyl)-1,2,2a,3,8,8a-hexahydrocyclobuta[b]quinolin-8-yl)(ethyl)amino)-4-oxobutanoic acid]
20.1 to 200 nM | CCN(C(=O)CCC(=O)O)C1c2ccccc2N(C(=O)OCc2ccc(C(F)(F)F)cc2)C2CCC12 (single isomer, unassigned) [compound 91, 4-(ethyl(cis, cis-3-((4-(trifluoromethyl)benzyloxy)carbonyl)-1,2,2a,3,8,8a-hexahydrocyclobuta[b]quinolin-8-yl)amino)-4-oxobutanoic acid]
20.1 to 200 nM | CCN(C(=O)CCC(=O)O)C1c2ccccc2N(C(=O)OCc2cccc(F)c2)C2CCC12 (single isomer, unassigned) [compound 92, 4-(ethyl(cis, cis-3-((3-fluorobenzyloxy)carbonyl)-1,2,2a,3,8,8a-hexahydrocyclobuta[b]quinolin-8-yl)amino)-4-oxobutanoic acid]
20.1 to 200 nM | CCN(C(=O)CCC(=O)O)C1c2ccccc2N(C(=O)OCc2ccc(SC)cc2)C2CCC12 (single isomer, unassigned) [compound 93, 4-(ethyl(cis, cis-3-((4-(methylthio)benzyloxy)carbonyl)-1,2,2a,3,8,8a-hexahydrocyclobuta[b]quinolin-8-yl)amino)-4-oxobutanoic acid]
20.1 to 200 nM | CCN(C(=O)CCC(=O)O)C1c2ccccc2N(C(=O)OCc2ccc3occc3c2)C2CCC12 (single isomer, unassigned) [compound 94, 4-((cis, cis-3-((benzofuran-5-ylmethoxy)carbonyl)-1,2,2a,3,8,8a-hexahydrocyclobuta[b]quinolin-8-yl)(ethyl)amino)-4-oxobutanoic acid]
20.1 to 200 nM | CCN(C(=O)CCC(=O)O)C1c2ccccc2N(C(=O)c2ccc3c(c2)OCO3)C2CCC12 (single isomer, unassigned) [compound 95, 4-((cis, cis-3-(benzo[d][1,3]dioxole-5-carbonyl)-1,2,2a,3,8,8a-hexahydrocyclobuta[b]quinolin-8-yl)(ethyl)amino)-4-oxobutanoic acid]
5.1 to 20 nM | CCN(C(=O)CCC(=O)O)C1c2ccccc2N(C(=O)c2cccc3ccccc23)C2CCC12 (single isomer, unassigned) [compound 96, 4-((cis, cis-3-(1-naphthoyl)-1,2,2a,3,8,8a-hexahydrocyclobuta[b]quinolin-8-yl)(ethyl)amino)-4-oxobutanoic acid]
20.1 to 200 nM | CCN(C(=O)CCC(=O)O)C1c2ccccc2N(C(=O)c2ccc(F)cc2F)C2CCC12 (single isomer, unassigned) [compound 97, 4-((cis, cis-3-(2,4-difluorobenzoyl)-1,2,2a,3,8,8a-hexahydrocyclobuta[b]quinolin-8-yl)(ethyl)amino)-4-oxobutanoic acid]
201 to 7500 nM | O=C(O)CCC(=O)N(C1CC1)C1c2cc(-c3ccccc3)ccc2N(C(=O)OCc2ccccc2)C2CCC21 (single isomer, unassigned) [compound 99, 4-((cis, cis-3-(benzyloxycarbonyl)-6-phenyl-1,2,2a,3,8,8a-hexahydrocyclobuta[b]quinolin-8-yl)(cyclopropyl)amino)-4-oxobutanoic acid]
1 to 5 nM | O=C(O)CCC(=O)N(C1CC1)C1c2cc(F)ccc2N(C(=O)OCc2ccc(C(F)(F)F)cc2)C2CCC21 (single isomer, unassigned) [compound 100, 3-[[4-(trifluoromethyl)phenyl]methyl] cis, cis-[(3-carboxy-1-oxopropyl)cyclopropylamino]-6-fluoro-2,2a,8,8a-tetrahydrocyclobuta[b] quinoline-3(1H)-carboxylate]
201 to 7500 nM | C[C@H](OC(=O)N1c2ccc(F)cc2C(N(C(=O)CCC(=O)O)C2CC2)C2CCC21)c1ccccc1 (single isomer, unassigned) [compound 101]
